Screen size: about 310,000 compounds; about 14,000 (4.5%) showed an effect of 50% or more. Effects have a minus sign here. Some of the results follow.
What follows are molecules tested against human ether-à-go-go-related gene (hERG) potassium channel (human, UniProt Q12809) (assay: primary screen, population patch clamp on CHO cells stably expressing hERG).
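Further: peak tail current of the secondary pulse compared with the same well before compound.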

Chain of human ether-à-go-go-related gene (hERG) potassium channel (Q12809 whole entry, looked up): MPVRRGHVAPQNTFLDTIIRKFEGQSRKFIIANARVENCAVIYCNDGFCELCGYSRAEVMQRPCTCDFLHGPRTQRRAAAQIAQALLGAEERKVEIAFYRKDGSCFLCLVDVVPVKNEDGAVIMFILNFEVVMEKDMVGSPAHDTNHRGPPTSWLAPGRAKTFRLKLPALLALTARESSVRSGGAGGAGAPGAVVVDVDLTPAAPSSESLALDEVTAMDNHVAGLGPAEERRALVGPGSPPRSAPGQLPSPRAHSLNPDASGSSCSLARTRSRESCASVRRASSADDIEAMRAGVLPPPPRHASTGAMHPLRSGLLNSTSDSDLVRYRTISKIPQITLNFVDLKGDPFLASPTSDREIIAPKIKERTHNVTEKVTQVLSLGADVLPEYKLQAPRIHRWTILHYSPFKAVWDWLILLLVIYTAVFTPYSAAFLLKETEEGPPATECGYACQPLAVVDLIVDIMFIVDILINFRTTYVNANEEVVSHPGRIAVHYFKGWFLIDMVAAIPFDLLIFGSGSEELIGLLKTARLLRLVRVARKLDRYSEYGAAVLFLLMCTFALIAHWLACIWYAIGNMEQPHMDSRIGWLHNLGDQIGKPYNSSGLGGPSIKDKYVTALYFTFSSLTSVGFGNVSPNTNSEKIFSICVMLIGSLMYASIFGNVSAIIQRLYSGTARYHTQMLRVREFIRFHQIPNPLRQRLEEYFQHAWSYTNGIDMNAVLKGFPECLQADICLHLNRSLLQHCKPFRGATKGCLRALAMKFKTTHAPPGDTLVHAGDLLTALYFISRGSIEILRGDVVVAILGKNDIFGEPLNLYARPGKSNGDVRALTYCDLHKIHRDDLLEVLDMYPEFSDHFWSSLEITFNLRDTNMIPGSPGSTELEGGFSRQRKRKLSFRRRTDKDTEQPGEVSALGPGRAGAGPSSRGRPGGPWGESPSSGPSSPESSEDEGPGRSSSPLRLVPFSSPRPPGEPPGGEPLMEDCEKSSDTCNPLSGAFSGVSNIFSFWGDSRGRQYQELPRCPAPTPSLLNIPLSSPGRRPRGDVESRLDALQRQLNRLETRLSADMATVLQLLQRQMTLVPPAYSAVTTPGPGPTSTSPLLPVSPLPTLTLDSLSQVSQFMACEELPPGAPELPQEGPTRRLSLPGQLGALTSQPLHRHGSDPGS

Q: `COc1ccc(CNC(=O)Cn2cnc3c(=O)n(C)c(=O)n(C)c32)cc1` was tested. Which “hERG current change (%, negative = inhibition) at 10uM” value did it give?
A: 2.8%

Q: How did the “hERG current change (%, negative = inhibition) at 10uM” value turn out when `Cc1ccc(C(=O)Nc2ccccc2C(=O)O)cc1S(=O)(=O)NCc1ccccc1` was run?
A: 9.8%

Q: With `CC1CCCN(c2ncnc3c2cnn3-c2ccc(Cl)cc2)C1` (centres unmarked) as the molecule, how does the “hERG current change (%, negative = inhibition) at 10uM” value read?
A: 11.7%

Q: With `O=C1Cc2ccccc2C(=O)N1OCc1ccc(Cl)cc1Cl` as the molecule, how does the “hERG current change (%, negative = inhibition) at 10uM” value read?
A: 18.5%

Q: With `Cc1ccc(C(=O)Nc2nc3ccc(Cl)cc3s2)o1` as the molecule, how does the “hERG current change (%, negative = inhibition) at 10uM” value read?
A: 4.93%

Q: `NC(=O)c1ccc(Oc2ncc(C(F)(F)F)cc2Cl)cc1` was tested. Which “hERG current change (%, negative = inhibition) at 10uM” value did it give?
A: -3.77%

Q: With `CCOC(=O)c1c(C)[nH]c(C(=O)OCC(=O)NC2(C#N)CCCCC2)c1C` as the molecule, how does the “hERG current change (%, negative = inhibition) at 10uM” value read?
A: -15.9%

Q: With `COc1ccc2c(CC(=O)OCC(=O)Nc3ccccc3[N+](=O)[O-])coc2c1` as the molecule, how does the “hERG current change (%, negative = inhibition) at 10uM” value read?
A: 19.4%

Q: With `COc1cc(S(=O)(=O)n2cnc(C)c2)ccc1Cl` as the molecule, how does the “hERG current change (%, negative = inhibition) at 10uM” value read?
A: 2.87%

Q: For `COc1cccc(CN(CC(=O)NC2CCCC2)C(=O)CCC(=O)Nc2cc(C)on2)c1`, which “hERG current change (%, negative = inhibition) at 10uM” value is on record?
A: -7.79%

Q: How did the “hERG current change (%, negative = inhibition) at 10uM” value turn out when `CCOC(=O)c1ccc(NC(=O)Cn2cnc3cc(C)c(C)cc32)cc1` was run?
A: 11.2%

Q: For `CCCS(=O)(=O)c1nc(S(=O)(=O)c2ccc(C)cc2)c(N2CCC(C(N)=O)CC2)s1`, which “hERG current change (%, negative = inhibition) at 10uM” value is on record?
A: -18.2%

Q: `CC(C)(C)C(=O)NC(=S)NCc1ccccc1` was tested. Which “hERG current change (%, negative = inhibition) at 10uM” value did it give?
A: 1.99%

Q: With `CC(C)=CC1C(C(=O)NCCOc2ccccc2)C1(C)C` (centres unmarked) as the molecule, how does the “hERG current change (%, negative = inhibition) at 10uM” value read?
A: 12.2%

Q: For `O=C1NN(c2ccc(F)cc2)C(=O)/C1=C/c1cccs1`, which “hERG current change (%, negative = inhibition) at 10uM” value is on record?
A: 7.57%

Q: How did the “hERG current change (%, negative = inhibition) at 10uM” value turn out when `C/C(=N\NC(=O)Cn1cnc2ccccc21)c1cccs1` was run?
A: 16%

Q: `CC1=C/C(=C(/c2cc(C)c(O)c(Br)c2)c2ccccc2S(=O)(=O)[O-])C=C(Br)C1=O.[NH4+]` was tested. Which “hERG current change (%, negative = inhibition) at 10uM” value did it give?
A: 14.8%

Q: How did the “hERG current change (%, negative = inhibition) at 10uM” value turn out when `O=C(CC1SC(=Nc2ccc3c(c2)OCCO3)NC1=O)Nc1ccc(F)cc1F` (centres unmarked) was run?
A: 8.62%

Q: How did the “hERG current change (%, negative = inhibition) at 10uM” value turn out when `Cc1ccc(OCCC(=O)Nc2ccccc2C(=O)NC2CC2)cc1` was run?
A: -2.73%

Q: Which “hERG current change (%, negative = inhibition) at 10uM” value does the source give for `COc1ccc(CCn2c(=N)c(C(=O)NCCN3CCOCC3)cc3c(=O)n4cccc(C)c4nc32)cc1OC` here?
A: -97.8%

Q: Which “hERG current change (%, negative = inhibition) at 10uM” value does the source give for `COCCNC(=S)N1CCCN(c2nc3cc(C)ccc3cc2C#N)CC1` here?
A: -28.1%

Q: For `NS(=O)(=O)c1ccc(N=Cc2c(O)n(-c3nccs3)c(=O)c3ccccc23)cc1`, which “hERG current change (%, negative = inhibition) at 10uM” value is on record?
A: 7.12%

Q: `CCOC(=O)c1sc(N)c(C(N)=O)c1C` was tested. Which “hERG current change (%, negative = inhibition) at 10uM” value did it give?
A: 8.49%

Q: For `CC(C)(C)C1CCc2c(C(=O)NNC(=O)CCCC(=O)O)csc2C1` (centres unmarked), which “hERG current change (%, negative = inhibition) at 10uM” value is on record?
A: 16.4%

Q: For `COc1ccc(CN(C)C(=S)Nc2ccc(Cl)cc2)cc1`, which “hERG current change (%, negative = inhibition) at 10uM” value is on record?
A: -20.7%

Q: How did the “hERG current change (%, negative = inhibition) at 10uM” value turn out when `COc1ccc(C(c2c(O)ccc3ccccc23)N2CCOCC2)c(OC)c1` (centres unmarked) was run?
A: 12.9%

Q: Which “hERG current change (%, negative = inhibition) at 10uM” value does the source give for `O=C(NCC1CCCO1)c1ccc(NS(=O)(=O)c2cccc([N+](=O)[O-])c2)cc1` (centres unmarked) here?
A: -17.2%

Q: With `O=C(NCc1cccnc1)Nc1cc(Cl)cc(Cl)c1` as the molecule, how does the “hERG current change (%, negative = inhibition) at 10uM” value read?
A: -4.44%

Q: How did the “hERG current change (%, negative = inhibition) at 10uM” value turn out when `C=CCNC(=S)Nc1ccccc1-c1nnc2n1CCCCC2` was run?
A: 17.4%

Q: Which “hERG current change (%, negative = inhibition) at 10uM” value does the source give for `COc1cc(C(=O)OCC(=O)NCc2ccccc2)cc(NC(=O)c2ccco2)c1OC` here?
A: 1.36%

Q: Which “hERG current change (%, negative = inhibition) at 10uM” value does the source give for `COc1ccc(C2CC(c3ccc([N+](=O)[O-])cc3)=NN2C(C)=O)cc1` (centres unmarked) here?
A: -64.5%

Q: Which “hERG current change (%, negative = inhibition) at 10uM” value does the source give for `O=C(COC(=O)/C=C/c1cccs1)Nc1ccccc1Cl` here?
A: 15.8%

Q: For `Cc1cc(NC(=O)CSc2nnc(NC(=O)C3CC(=O)N(c4ccccc4C)C3)s2)no1` (centres unmarked), which “hERG current change (%, negative = inhibition) at 10uM” value is on record?
A: 2.51%

Q: `COc1cccc(NC(=O)CN(C)C(=O)c2ccc(-n3cncn3)c([N+](=O)[O-])c2)c1` was tested. Which “hERG current change (%, negative = inhibition) at 10uM” value did it give?
A: -44.8%

Q: `O=C(O)c1ccc(Cl)c(S(=O)(=O)N2CCCCCC2)c1` was tested. Which “hERG current change (%, negative = inhibition) at 10uM” value did it give?
A: -8.34%

Q: For `CN(c1ccc(OCC(=O)OCC(=O)Nc2c(F)c(F)c(F)c(F)c2F)cc1)S(=O)(=O)c1ccc(F)cc1`, which “hERG current change (%, negative = inhibition) at 10uM” value is on record?
A: 8.61%

Q: Which “hERG current change (%, negative = inhibition) at 10uM” value does the source give for `COc1c(C(=O)Nc2c(C)n(C)n(-c3ccccc3)c2=O)ccc2ccccc12` here?
A: 1.5%

Q: For `COc1ccc(OC)c(S(=O)(=O)N2CCC(C(=O)NCc3ccccc3)CC2)c1`, which “hERG current change (%, negative = inhibition) at 10uM” value is on record?
A: -9.9%

Q: With `O=C(NCc1ccc(OC(F)(F)F)cc1)C1CC(c2cccc(F)c2)=NO1` (centres unmarked) as the molecule, how does the “hERG current change (%, negative = inhibition) at 10uM” value read?
A: -0.147%

Q: How did the “hERG current change (%, negative = inhibition) at 10uM” value turn out when `CCCSc1nnc(CSc2nc3nc(C)cc(C)n3n2)o1` was run?
A: -4.91%

Q: Which “hERG current change (%, negative = inhibition) at 10uM” value does the source give for `CCN(Cc1ccccc1)C(c1ccc(Cl)cc1)c1nnnn1C(C)(C)C` (centres unmarked) here?
A: -1.99%

Q: `CC(C)(C)c1ccc(C(=O)NCCCn2ccnc2)cc1.Cl` was tested. Which “hERG current change (%, negative = inhibition) at 10uM” value did it give?
A: -11%

Q: How did the “hERG current change (%, negative = inhibition) at 10uM” value turn out when `CC(C)(C)SCCSC1=CC(=O)CC(c2ccccc2)C1` (centres unmarked) was run?
A: -7.61%

Q: Which “hERG current change (%, negative = inhibition) at 10uM” value does the source give for `CCOc1ccc(CC(=O)N2CCN=C2SCc2ccc([N+](=O)[O-])cc2)cc1` here?
A: 5.05%
